In all, about 220,000 compounds went through this assay and about 5,700 (2.6%) were called active. Inconclusive results, whose numbers are uncertain, are shown with a selection of clear calls. The call rests on the fitted dose curve; in most records, active means well fitted inhibition curve with a large enough effect; inconclusive means small, poorly fitted or top-dose-only effect; inactive means no such curve, though single readings can be large or run the other way. Potencies beside an inconclusive call are fits to weak or partial responses and may not hold up.
Target: Lysine-specific demethylase 5B (Homo sapiens) (UniProt Q9UGL1)
UniProt Q9UGL1, sequence (Q9UGL1 whole entry, looked up): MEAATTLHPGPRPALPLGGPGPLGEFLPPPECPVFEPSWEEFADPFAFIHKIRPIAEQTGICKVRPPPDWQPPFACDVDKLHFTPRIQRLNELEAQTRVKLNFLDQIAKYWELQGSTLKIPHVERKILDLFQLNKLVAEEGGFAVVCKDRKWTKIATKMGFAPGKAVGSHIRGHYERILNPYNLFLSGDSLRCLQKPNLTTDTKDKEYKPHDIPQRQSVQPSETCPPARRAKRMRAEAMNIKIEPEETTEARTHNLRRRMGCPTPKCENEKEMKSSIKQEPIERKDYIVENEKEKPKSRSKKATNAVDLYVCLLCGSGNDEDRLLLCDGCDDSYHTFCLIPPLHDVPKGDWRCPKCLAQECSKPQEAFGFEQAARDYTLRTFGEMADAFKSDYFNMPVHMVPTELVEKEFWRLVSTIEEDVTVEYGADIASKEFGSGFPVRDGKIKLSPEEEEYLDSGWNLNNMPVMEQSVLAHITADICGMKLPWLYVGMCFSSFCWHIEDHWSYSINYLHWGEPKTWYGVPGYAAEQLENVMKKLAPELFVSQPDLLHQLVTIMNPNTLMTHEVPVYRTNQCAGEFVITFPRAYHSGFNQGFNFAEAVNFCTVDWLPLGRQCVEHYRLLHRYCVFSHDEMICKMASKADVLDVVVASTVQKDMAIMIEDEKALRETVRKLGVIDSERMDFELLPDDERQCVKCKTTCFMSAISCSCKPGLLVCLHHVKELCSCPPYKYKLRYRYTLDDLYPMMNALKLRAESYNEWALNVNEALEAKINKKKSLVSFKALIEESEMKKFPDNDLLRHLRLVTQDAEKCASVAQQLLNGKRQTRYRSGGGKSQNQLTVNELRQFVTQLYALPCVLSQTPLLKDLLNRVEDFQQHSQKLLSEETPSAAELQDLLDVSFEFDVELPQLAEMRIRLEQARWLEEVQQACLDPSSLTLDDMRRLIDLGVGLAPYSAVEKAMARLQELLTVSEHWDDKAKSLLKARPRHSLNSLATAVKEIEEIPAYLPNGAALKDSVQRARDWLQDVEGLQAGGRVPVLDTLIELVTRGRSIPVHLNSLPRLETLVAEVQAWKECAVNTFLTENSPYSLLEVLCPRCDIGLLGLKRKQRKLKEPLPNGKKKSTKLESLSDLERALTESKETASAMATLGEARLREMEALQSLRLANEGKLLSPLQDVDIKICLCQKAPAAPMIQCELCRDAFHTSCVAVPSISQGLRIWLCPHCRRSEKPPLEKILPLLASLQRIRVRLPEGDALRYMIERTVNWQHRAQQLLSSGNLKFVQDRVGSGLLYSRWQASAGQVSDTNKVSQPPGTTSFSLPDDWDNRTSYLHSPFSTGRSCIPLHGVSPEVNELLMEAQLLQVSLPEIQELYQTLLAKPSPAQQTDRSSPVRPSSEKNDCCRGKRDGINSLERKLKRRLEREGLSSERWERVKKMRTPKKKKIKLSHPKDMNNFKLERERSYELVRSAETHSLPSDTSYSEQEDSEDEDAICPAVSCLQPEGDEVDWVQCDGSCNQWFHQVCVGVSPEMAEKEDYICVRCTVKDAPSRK
Test: Primary screen for KDM5B Histone Demethylases FDH-coupled qHTS; further: nearly all actives have a fitted effect of over 70% in size; on activity change, negative = inhibition: 0% is about no effect
Conditions: FDH-coupled NADH fluorescence (FDH is formaldehyde dehydrogenase); activity change, negative = inhibition: at 57.7 µM (top of the series) unless noted
How it was run: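 Compound dilutions met 200 nM (final) KDM5BΔAP for 10 min at room temperature before substrate addition. The substrate mix held 12.5 µM H3K4me3 with cofactors 25 µM α-ketoglutarate and 50 µM Fe²⁺. NADH signal gain over 30 min defined activity.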
Potency means the concentration at half of the fitted maximal effect; tags describe the fitted curve by direction and shape.

| Structure (SMILES) | Potency | activity change, negative = inhibition |
| --- | --- | --- |
| Fc1ccc(NC2CCCN(Cc3ccc(C#Cc4cncnc4)cc3)C2)cc1F (centres undefined) | inconclusive: 22.4 µM [inhibitor, single point] | – |
| CC(C)Cn1c(=O)c2sccc2n2c(CCCC(=O)NCCc3ccc(Cl)cc3)nnc12 | inconclusive: 12.6 µM [inhibitor, partial curve, poor fit] | – |
| CCn1nc(C(=O)OC(C)C(N)=O)c2ccccc2c1=O (centres undefined) | – | inactive: -6.53% |
| Cc1nn(-c2ccccc2)c(-n2cccc2)c1C(=O)NCCc1ccc(Cl)cc1 | inconclusive: 2.82 µM [inhibitor, full curve, poor fit] | – |
| O=C(NCc1cccn1Cc1ccccc1)NC12CC3CC(CC(C3)C1)C2 | – | inactive: -4.26% |
| CC(Sc1nc(CN2CCOCC2)nc2ccccc12)C(=O)Nc1ccc(F)cc1F (centres undefined) | – | inactive: 14.7% |
| Cn1cnc(C(=O)N[C@@H]2CN(c3ncccn3)C[C@H]2CO)c1 | active: 28.2 µM | – |
| Cc1ccc(C(=O)NCc2cccnc2N(C)C2CCCCC2)cn1 | – | inactive: -11.7% |
| CCOC(=O)c1cccc(NC(=O)c2ccc3c(c2)N(CC)C2CCCCCN2C3=O)c1 (centres undefined) | inconclusive: 28.2 µM [inhibitor, partial curve, poor fit] | – |
| CCc1ccc(C(=O)Oc2ccc(-c3ccccc3)cc2)cc1 | – | inactive: 20.8% |
| CCCn1cnc2c1CN(S(=O)(=O)c1ccccc1)[C@H](C(=O)OC)C2 | inconclusive: 28.2 µM [inhibitor, single point] | – |
| CCCCCNC(=O)C(C#N)c1nc2ccccc2nc1N1CCCC1 (centres undefined) | inconclusive: 35.5 µM [inhibitor, single point] | – |
| OC[C@@H]1O[C@H](CN(Cc2cccc(Cl)c2)Cc2cccc(Cl)c2)[C@H](N2CCN(c3ccccn3)CC2)[C@@H]1O | active: 25.1 µM | – |
| CCn1c(SCC(=O)Nc2ccc(C)cc2F)nnc1C(C)NC(=O)c1ccco1 (centres undefined) | – | inactive: -2.78% |
| CCCC(C(=O)Nc1nc2ccccc2s1)c1ccccc1 (centres undefined) | – | inactive: -9.98% |
| Cc1cc(NC(=O)CCc2ncc(-c3ccc(F)cc3F)o2)no1 | – | inactive: 17.3% |
| COc1ccc(OC)c2sc(N3CCN(C(=O)c4ccc5c(c4)CCCC5)CC3)nc12 | inconclusive: 14.1 µM [inhibitor, partial curve, poor fit] | – |
| CCC1CCc2nc3sc(C(=O)Nc4ccc(C)cc4)c(N)c3cc2C1 (centres undefined) | inconclusive: 2.82 µM [inhibitor, full curve, poor fit] | – |
| O=C(O)C[C@@H]1CCN(C(=O)C2CCCC2)C[C@@H]1CCN(CCN1CCOCC1)c1ccccc1 | inconclusive: 8.91 µM [inhibitor, partial curve] | – |
| CCCCCn1c(=O)[nH]c2cc(C(=O)NCc3ccc(Cl)cc3)ccc2c1=O | – | inactive: 2.37% |
| COc1ccccc1C(=O)NCCn1cc(SCc2ccc(C)cc2)c2ccccc21 | inconclusive: 25.1 µM [inhibitor, single point] | – |
| Cn1ccc2c(C(=O)NCCc3ccccn3)nc(-c3cccc(N4CCOCC4)c3)cc21 | inconclusive: 28.2 µM [inhibitor, partial curve, poor fit] | – |

| Structure (SMILES) | Potency | activity change, negative = inhibition |
| --- | --- | --- |
| Cc1ccc(S(=O)(=O)N2CCC(C(=O)NCc3cnn(-c4ccccc4)c3)CC2)cc1 | – | inactive: 7.11% |
| CC(C)c1ccc(CC(=O)N2CCCc3ncc(C(=O)Nc4ccc5[nH]ccc5c4)cc32)cc1 | inconclusive: 31.6 µM [inhibitor, partial curve, poor fit] | – |
| CN1CC(=O)N(C2CCNCC2)Cc2c1ncnc2N1CCCCC1 | – | inactive: -17.7% [at 115 µM] |
| CC(C)NC(=O)C(=O)N1CCN(c2nc(-c3ccco3)c3c(c2C#N)CCCC3)CC1 | inconclusive: 22.4 µM [inhibitor, partial curve, poor fit] | – |
| COCCNC(=O)c1cn2ccnc(-c3ccc(C)cc3)c2n1 | – | inactive: -43.8% |
| Cc1nc2cc(NC(=O)C(C)Oc3ccc(F)cc3)ccc2o1 (centres undefined) | – | inactive: 19.1% |
| COc1ccc(-c2cc3ccc(O)c(CN4CCC(C)CC4)c3oc2=O)cc1 | inconclusive: 10 µM [inhibitor, partial curve, poor fit] | – |
| CC(C)Oc1ccc2c(NC(=O)CN3CCCC3=O)nn(Cc3ccccc3)c2c1 | – | inactive: -18.9% |
| CN1CCN(c2cc(C(=O)O)c3cc(NC(=O)c4ccc(Cl)cc4)ccc3n2)CC1 | inconclusive: 20 µM [inhibitor, partial curve, poor fit] | – |
| O=C(NCCCO)C1CC(=O)N(c2n[nH]c3cc(Br)ccc23)C1 (centres undefined) | inconclusive: 25.1 µM [inhibitor, partial curve, poor fit] | – |
| O=C(NCCc1cccs1)c1ccc(Cl)cc1 | – | inactive: 15.3% |
| Cc1nn(C)c2c1c(C(F)(F)F)cc(=O)n2CC(=O)NCCC(C)C | inconclusive: 2.51 µM [inhibitor, full curve, poor fit] | – |
| Cc1nn(CCc2nnc(Nc3ccn(Cc4ccccc4Cl)n3)s2)cc1Br | – | inactive: 10.7% |
| C[C@@]1(O)CCN(Cc2ccc(Br)o2)C[C@H]1N1CCCC1 | inconclusive: 15.8 µM [inhibitor, partial curve, poor fit] | – |
| CCCOc1nccnc1NC1CCN(S(=O)(=O)CC)CC1 | active: 28.2 µM | – |
| COc1ccc(Oc2c(C(F)(F)F)oc3c(CN4CCCC(C)C4)c(O)ccc3c2=O)cc1 (centres undefined) | inconclusive: 2.24 µM [inhibitor, partial curve, poor fit] | – |
| CN(C)C(=O)CCc1c(-c2ccc(F)cc2)[nH]c2ccc(F)cc12 | inconclusive: 28.2 µM [inhibitor, partial curve, poor fit] | – |
| Cc1ccc(CN2CCC(C3CCN(C)CC3)C2)o1 (centres undefined) | inconclusive: 31.6 µM [inhibitor, partial curve] | – |
| Cc1ccc(NC(=O)Cn2cc3c(n2)CCCC3)c(Cl)c1 | inconclusive: 25.1 µM [inhibitor, partial curve, poor fit] | – |
| COc1cc(C(=O)Nc2nnc(CC(=O)NCc3ccccc3)s2)cc(OC)c1OC | inconclusive: 25.1 µM [inhibitor, single point] | – |
| O=C(NCCc1nccc(-c2ccccc2)n1)c1ccc2cccc(F)c2n1 | inconclusive: 28.2 µM [inhibitor, partial curve, poor fit] | – |
| Cc1cn2nc(C(=O)NCc3cccc(Cl)c3)cc2c(N(C)Cc2ccccc2)n1 | active: 25.1 µM | – |

— PubChem BioAssay AID1347165 (National Center for Advancing Translational Sciences (NCATS), 2019)
